Assay results taken from PubChem BioAssay AID1508624 (National Center for Advancing Translational Sciences (NCATS), 2021).
About 120 (0.25%) of roughly 48,000 compounds were called active. Inconclusive results (about 4%) are left out. Calls follow the shape of the dose curve; as a rule, active = well fitted activation curve with a large enough effect; inconclusive = small, poorly fitted or top-dose-only effect, or another doubt; inactive = no such curve, though single readings can be large or run the other way. The list shows a part of the results.

Test: Primary qHTS for Identification of Small Molecule Activators of Huntingtin-Antisense Promoter Activity; also: nearly all actives have a fitted effect of over 55% in size
Conditions: HEK293 HTT-AS promoter firefly luciferase reporter (activity 0% = vehicle and -100% = no light), 24 h; series mostly up to 57.5 µM; activity change, positive = activation: at the top concentration
In short: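 Firefly luciferase readout (Dual-Glo, 10 min RT) after 24 h, 37 °C compound exposure (final up to 57.5 uM) of HEK293 reporter cells cultured 24 h beforehand; PTC124 at 50 uM final as control inhibitor; activity scaled vehicle 0%, zero RLU -100%.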

Row | SMILES | activity change, positive = activation
1 | COc1cccc(CNC(=O)c2sc3nc(C)cc(C)c3c2-n2cccc2)c1OC | inactive: 2.53%
2 | CCOC(=O)c1ccc(NC(=O)C2CCCN(c3ncnc4onc(-c5ccc(F)cc5)c34)C2)cc1 (stereo not drawn) | inactive: -21.9%
3 | Cc1ccc(Cl)cc1N1CCN(C(=O)c2ccc(NC(=O)c3nsc4ccccc34)cc2)CC1 | inactive: -28.5%
4 | CCOC(=O)COc1ccc(CC)cc1C(=O)c1ccn2nc(-c3ccccc3)cc2n1 | inactive: -8.89%
5 | COC(=O)C(Cc1c[nH]c2ccccc12)NC(=O)COc1cccc(C)c1 (stereo not drawn) | inactive: -8.8%
6 | COC(=O)c1sccc1S(=O)(=O)N1CCN(c2cc(Cl)ccc2C)CC1 | inactive: -25.4%
7 | Cc1nn(S(=O)(=O)c2ccc(C(C)(C)C)cc2)c(C)c1S(=O)(=O)N1CCCCCC1 | inactive: -7.21%
8 | Cc1ccc(-c2n[nH]c3c2C(c2ccc(C(C)(C)C)cc2)NC3=O)cc1 (stereo not drawn) | inactive: -20.5%
9 | COCCNC(=O)CCn1c(=O)c2cc(OC)c(OC)cc2n(CC(=O)Nc2ccc(Cl)cc2F)c1=O | inactive: -12.2%
10 | Cc1ccc(NC(=O)c2oc3ccc(S(=O)(=O)N4CCC5(CC4)OCCO5)cc3c2C)cc1C | inactive: -17.6%
11 | COc1ccccc1-c1nc(SCC(=O)NCc2ccc(C)cc2)c2c(=O)n(C)c(=O)n(C)c2n1 | inactive: -5.7%
12 | Cc1cccc(CN2C(=O)N(c3ccc(C(C)C)cc3)S(=O)(=O)c3ccccc32)c1 | inactive: -29.2%
13 | Cc1ccc(-c2ccc(=O)n(CC(=O)Nc3ccc(C)cc3Cl)n2)cc1 | inactive: -15.7%
14 | COc1cccc(/C=C/c2nc(C#N)c(NCCc3ccccc3)o2)c1 | inactive: 2.34%
15 | Clc1cccc(N2CCN(c3nc4ccccc4n4nnnc34)CC2)c1 | inactive: 14.1%
16 | COc1ccc(C(=O)Nc2ccc3oc(-c4cccnc4)nc3c2)cc1 | inactive: 6.62%
17 | O=C1[C@@H]2[C@H]3CC[C@H](C3)[C@@H]2C(=O)N1CCCCN1CCN(c2ncccn2)CC1 | inactive: -5.96%
18 | COc1ccc(C2C=C(c3ccccc3)Nc3nc(NC(=O)c4cccc([N+](=O)[O-])c4)nn32)cc1 (stereo not drawn) | inactive: -9.74%
19 | O=C(NCc1ccccc1)C1CCCN(S(=O)(=O)c2cccc3nsnc23)C1 (stereo not drawn) | inactive: -15.5%
20 | CC(C)(C)OC(=O)N1CCC(c2c(C(=O)Nc3ccc4c(c3)OCCO4)cnn2-c2ccc(Cl)cc2)CC1 | inactive: -47.7%
21 | O=C1CN(C(=O)COc2ccc(Cl)cc2)C(c2ccccc2)c2cc(Br)ccc2N1 (stereo not drawn) | inactive: -26.9%
22 | CC[C@H]1OC(=O)[C@H](C)C(=O)[C@H](C)[C@@H](O[C@H]2O[C@H](C)C[C@H](N(C)C)[C@@H]2O)[C@](C)(OC)C[C@@H](C)C(=O)[C@H](C)[C@H]2N(CCCCn3cnc(-c4cccnc4)c3)C(=O)O[C@]12C | inactive: -27.4%
23 | CCOc1ccc(NC(=O)CN2C(=O)CC(C)Sc3ccccc32)cc1 (stereo not drawn) | inactive: -16.2%
